# Data: US20230365662A1
# Certain results were filed several times, with different values. They are shown here; other results are not. An entry can have further records. Values given together seem to repeat one measurement; one of them may be the mean.
# B1: KB001 mouse Fab VL T24S (Fab, V domains shown)
# VH: EVQLKQSGPGLVAPSQSLSITCTVSGFSLSIYSVHWVRQPPGKGLEWLGMIWGGGSSDYNSALKSRLSISKDNSKSQVFLKMNSLQTDDTAMYYCARNGNFYAMDYWGQGTSVTVSS
# VL: QIVLTQSPAIMSASLGERVTMTCSASSSVSSSFLHWYQQKPGSSPQLWIYSTSNLASGVPARFSGSGSGTSYSLTISSMEAEDAATYYCHQYHHSPYIYTFGGGTKLEIK
# B2: KB001 mouse Fab FASEBA VH S56G (Fab, V domains shown)
# VH: EVQLKQSGPGLVAPSQSLSITCTVSGFSLSIYSVHWVRQPPGKGLEWLGMIWGGGGSDYNSALKSRLSISKDNSKSQVFLKMNSLQTDDTAMYYCARNGNFYAMDYWGQGTSVTVSS
# VL: QIVLTQSPAIMSASLGERVTMTCTASSSVSSSFLHWYQQKPGSSPQLWIYSTSNLASGVPARFSGSGSGTSYSLTISSMEAEDAATYYCHQYHHSPYIYTFGGGTKLEIK
# B3: KB001 mouse Fab FASEBA VH S57E (Fab, V domains shown)
# VH: EVQLKQSGPGLVAPSQSLSITCTVSGFSLSIYSVHWVRQPPGKGLEWLGMIWGGGSEDYNSALKSRLSISKDNSKSQVFLKMNSLQTDDTAMYYCARNGNFYAMDYWGQGTSVTVSS
# VL: QIVLTQSPAIMSASLGERVTMTCTASSSVSSSFLHWYQQKPGSSPQLWIYSTSNLASGVPARFSGSGSGTSYSLTISSMEAEDAATYYCHQYHHSPYIYTFGGGTKLEIK
# B4: KB001 mouse Fab FASEBA VH Y59L (Fab, V domains shown)
# VH: EVQLKQSGPGLVAPSQSLSITCTVSGFSLSIYSVHWVRQPPGKGLEWLGMIWGGGSSDLNSALKSRLSISKDNSKSQVFLKMNSLQTDDTAMYYCARNGNFYAMDYWGQGTSVTVSS
# VL: QIVLTQSPAIMSASLGERVTMTCTASSSVSSSFLHWYQQKPGSSPQLWIYSTSNLASGVPARFSGSGSGTSYSLTISSMEAEDAATYYCHQYHHSPYIYTFGGGTKLEIK
# B5: KB001 mouse Fab FASEBA VH S56Q (Fab, V domains shown)
# VH: EVQLKQSGPGLVAPSQSLSITCTVSGFSLSIYSVHWVRQPPGKGLEWLGMIWGGGQSDYNSALKSRLSISKDNSKSQVFLKMNSLQTDDTAMYYCARNGNFYAMDYWGQGTSVTVSS
# VL: QIVLTQSPAIMSASLGERVTMTCTASSSVSSSFLHWYQQKPGSSPQLWIYSTSNLASGVPARFSGSGSGTSYSLTISSMEAEDAATYYCHQYHHSPYIYTFGGGTKLEIK
# B6: KB001 mouse Fab FASEBA VH A62T (Fab, V domains shown)
# VH: EVQLKQSGPGLVAPSQSLSITCTVSGFSLSIYSVHWVRQPPGKGLEWLGMIWGGGSSDYNSTLKSRLSISKDNSKSQVFLKMNSLQTDDTAMYYCARNGNFYAMDYWGQGTSVTVSS
# VL: QIVLTQSPAIMSASLGERVTMTCTASSSVSSSFLHWYQQKPGSSPQLWIYSTSNLASGVPARFSGSGSGTSYSLTISSMEAEDAATYYCHQYHHSPYIYTFGGGTKLEIK
# B7: KB001 mouse Fab FASEBA VH S61D (Fab, V domains shown)
# VH: EVQLKQSGPGLVAPSQSLSITCTVSGFSLSIYSVHWVRQPPGKGLEWLGMIWGGGSSDYNDALKSRLSISKDNSKSQVFLKMNSLQTDDTAMYYCARNGNFYAMDYWGQGTSVTVSS
# VL: QIVLTQSPAIMSASLGERVTMTCTASSSVSSSFLHWYQQKPGSSPQLWIYSTSNLASGVPARFSGSGSGTSYSLTISSMEAEDAATYYCHQYHHSPYIYTFGGGTKLEIK
# B8: KB001 mouse Fab FASEBA VH G53A (Fab, V domains shown)
# VH: EVQLKQSGPGLVAPSQSLSITCTVSGFSLSIYSVHWVRQPPGKGLEWLGMIWAGGSSDYNSALKSRLSISKDNSKSQVFLKMNSLQTDDTAMYYCARNGNFYAMDYWGQGTSVTVSS
# VL: QIVLTQSPAIMSASLGERVTMTCTASSSVSSSFLHWYQQKPGSSPQLWIYSTSNLASGVPARFSGSGSGTSYSLTISSMEAEDAATYYCHQYHHSPYIYTFGGGTKLEIK
# B9: KB001 mouse Fab FASEBA VH S56V (Fab, V domains shown)
# VH: EVQLKQSGPGLVAPSQSLSITCTVSGFSLSIYSVHWVRQPPGKGLEWLGMIWGGGVSDYNSALKSRLSISKDNSKSQVFLKMNSLQTDDTAMYYCARNGNFYAMDYWGQGTSVTVSS
# VL: QIVLTQSPAIMSASLGERVTMTCTASSSVSSSFLHWYQQKPGSSPQLWIYSTSNLASGVPARFSGSGSGTSYSLTISSMEAEDAATYYCHQYHHSPYIYTFGGGTKLEIK
# B10: KB001 mouse Fab VL S27A (Fab, V domains shown)
# VH: EVQLKQSGPGLVAPSQSLSITCTVSGFSLSIYSVHWVRQPPGKGLEWLGMIWGGGSSDYNSALKSRLSISKDNSKSQVFLKMNSLQTDDTAMYYCARNGNFYAMDYWGQGTSVTVSS
# VL: QIVLTQSPAIMSASLGERVTMTCTASASVSSSFLHWYQQKPGSSPQLWIYSTSNLASGVPARFSGSGSGTSYSLTISSMEAEDAATYYCHQYHHSPYIYTFGGGTKLEIK
# B11: KB001 mouse Fab VL S27T (Fab, V domains shown)
# VH: EVQLKQSGPGLVAPSQSLSITCTVSGFSLSIYSVHWVRQPPGKGLEWLGMIWGGGSSDYNSALKSRLSISKDNSKSQVFLKMNSLQTDDTAMYYCARNGNFYAMDYWGQGTSVTVSS
# VL: QIVLTQSPAIMSASLGERVTMTCTASTSVSSSFLHWYQQKPGSSPQLWIYSTSNLASGVPARFSGSGSGTSYSLTISSMEAEDAATYYCHQYHHSPYIYTFGGGTKLEIK
# B12: KB001 mouse Fab FASEBA VH I31Y (Fab, V domains shown)
# VH: EVQLKQSGPGLVAPSQSLSITCTVSGFSLSYYSVHWVRQPPGKGLEWLGMIWGGGSSDYNSALKSRLSISKDNSKSQVFLKMNSLQTDDTAMYYCARNGNFYAMDYWGQGTSVTVSS
# VL: QIVLTQSPAIMSASLGERVTMTCTASSSVSSSFLHWYQQKPGSSPQLWIYSTSNLASGVPARFSGSGSGTSYSLTISSMEAEDAATYYCHQYHHSPYIYTFGGGTKLEIK
# B13: KB001 mouse Fab VL S31G (Fab, V domains shown)
# VH: EVQLKQSGPGLVAPSQSLSITCTVSGFSLSIYSVHWVRQPPGKGLEWLGMIWGGGSSDYNSALKSRLSISKDNSKSQVFLKMNSLQTDDTAMYYCARNGNFYAMDYWGQGTSVTVSS
# VL: QIVLTQSPAIMSASLGERVTMTCTASSSVSGSFLHWYQQKPGSSPQLWIYSTSNLASGVPARFSGSGSGTSYSLTISSMEAEDAATYYCHQYHHSPYIYTFGGGTKLEIK
# B14: KB001 mouse Fab VL S31N (Fab, V domains shown)
# VH: EVQLKQSGPGLVAPSQSLSITCTVSGFSLSIYSVHWVRQPPGKGLEWLGMIWGGGSSDYNSALKSRLSISKDNSKSQVFLKMNSLQTDDTAMYYCARNGNFYAMDYWGQGTSVTVSS
# VL: QIVLTQSPAIMSASLGERVTMTCTASSSVSNSFLHWYQQKPGSSPQLWIYSTSNLASGVPARFSGSGSGTSYSLTISSMEAEDAATYYCHQYHHSPYIYTFGGGTKLEIK
# B15: KB001 mouse Fab FASEBA VH S30D (Fab, V domains shown)
# VH: EVQLKQSGPGLVAPSQSLSITCTVSGFSLDIYSVHWVRQPPGKGLEWLGMIWGGGSSDYNSALKSRLSISKDNSKSQVFLKMNSLQTDDTAMYYCARNGNFYAMDYWGQGTSVTVSS
# VL: QIVLTQSPAIMSASLGERVTMTCTASSSVSSSFLHWYQQKPGSSPQLWIYSTSNLASGVPARFSGSGSGTSYSLTISSMEAEDAATYYCHQYHHSPYIYTFGGGTKLEIK
# B16: KB001 mouse Fab FASEBA VH S57P (Fab, V domains shown)
# VH: EVQLKQSGPGLVAPSQSLSITCTVSGFSLSIYSVHWVRQPPGKGLEWLGMIWGGGSPDYNSALKSRLSISKDNSKSQVFLKMNSLQTDDTAMYYCARNGNFYAMDYWGQGTSVTVSS
# VL: QIVLTQSPAIMSASLGERVTMTCTASSSVSSSFLHWYQQKPGSSPQLWIYSTSNLASGVPARFSGSGSGTSYSLTISSMEAEDAATYYCHQYHHSPYIYTFGGGTKLEIK
# B17: KB001 mouse Fab FASEBA VH S61E (Fab, V domains shown)
# VH: EVQLKQSGPGLVAPSQSLSITCTVSGFSLSIYSVHWVRQPPGKGLEWLGMIWGGGSSDYNEALKSRLSISKDNSKSQVFLKMNSLQTDDTAMYYCARNGNFYAMDYWGQGTSVTVSS
# VL: QIVLTQSPAIMSASLGERVTMTCTASSSVSSSFLHWYQQKPGSSPQLWIYSTSNLASGVPARFSGSGSGTSYSLTISSMEAEDAATYYCHQYHHSPYIYTFGGGTKLEIK
# B18: KB001 mouse Fab VL T52A (Fab, V domains shown)
# VH: EVQLKQSGPGLVAPSQSLSITCTVSGFSLSIYSVHWVRQPPGKGLEWLGMIWGGGSSDYNSALKSRLSISKDNSKSQVFLKMNSLQTDDTAMYYCARNGNFYAMDYWGQGTSVTVSS
# VL: QIVLTQSPAIMSASLGERVTMTCTASSSVSSSFLHWYQQKPGSSPQLWIYSASNLASGVPARFSGSGSGTSYSLTISSMEAEDAATYYCHQYHHSPYIYTFGGGTKLEIK
# Tests used:
# [1] = molecular target: HRgpA-6H (Porphyromonas gingivalis) (UniProt P28784); experiment: ELISA, FASEBA Fab on coated HRgpA-6H
# [2] = molecular target: HRgpA-6H (Porphyromonas gingivalis) (UniProt P28784); experiment: ELISA on coated HRgpA-6H
Binder,OD450nm [1],Ratio OD(Variant)/OD(WT) [1],OD450nm [2],Ratio OD(Variant)/OD(WT) [2]
B1,"0.822, 0.798, 0.812, 0.704 [lines of one column]","1.07, 1.04, 1.06, 0.915 [lines of one column]",–,–
B2,–,–,"0.794, 0.823, 0.861, 0.819 [lines of one column]","0.903, 0.936, 0.979, 0.931 [lines of one column]"
B3,–,–,"0.777, 0.781, 0.723, 0.769 [lines of one column]","0.883, 0.888, 0.822, 0.874 [lines of one column]"
B4,–,–,"0.758, 0.775, 0.752, 0.691 [lines of one column]","0.958, 0.98, 0.951, 0.874 [lines of one column]"
B5,–,–,"0.718, 0.764, 0.728, 0.775 [lines of one column]","0.816, 0.869, 0.828, 0.881 [lines of one column]"
B6,–,–,"0.839, 0.812, 0.782, 0.827, 0.856 [lines of one column]","0.96, 0.929, 0.895, 0.946, 0.979 [lines of one column]"
B7,–,–,"0.562, 0.547, 0.549, 0.472 [lines of one column]",–
B8,–,–,"0.664, 0.741, 0.67, 0.699 [lines of one column]","0.834, 0.93, 0.841, 0.878 [lines of one column]"
B9,–,–,"0.761, 0.775, 0.777, 0.76 [lines of one column]","0.865, 0.881, 0.883, 0.864 [lines of one column]"
B10,"0.816, 0.808, 0.714, 0.722 [lines of one column]","1.09, 1.08, 0.951, 0.962 [lines of one column]",–,–
B11,"0.783, 0.702, 0.743, 0.737, 0.71 [lines of one column]","1.04, 0.935, 0.99, 0.982, 0.946 [lines of one column]",–,–
B12,–,–,"0.449, 0.436, 0.462, 0.454, 0.466 [lines of one column]","0.89, 0.864, 0.916, 0.9, 0.924 [lines of one column]"
B13,"0.864, 0.899, 0.824, 0.776 [lines of one column]","1.02, 1.06, 0.975, 0.918 [lines of one column]",–,–
B14,"0.869, 0.791, 0.749, 0.789, 0.769 [lines of one column]","1.03, 0.936, 0.886, 0.934, 0.91 [lines of one column]",–,–
B15,–,–,"0.579, 0.563, 0.617, 0.528, 0.54, 0.552, 0.547, 0.448 [lines of one column]","1.15, 1.12, 1.22, 1.05, 1.07, 1.09, 1.08, 0.888 [lines of one column]"
B16,–,–,"0.789, 0.801, 0.747, 0.724 [lines of one column]","0.897, 0.911, 0.849, 0.823 [lines of one column]"
B17,–,–,"0.603, 0.567, 0.588, 0.547 [lines of one column]","1.22, 1.15, 1.19, 1.11 [lines of one column]"
B18,"0.923, 0.848, 0.851, 0.782 [lines of one column]",–,–,–
